# Experimental data: PubChem BioAssay AID485294 (National Center for Advancing Translational Sciences (NCATS), 2010)
# Out of some 370,000 compounds screened, about 150 (0.041%) were called active. The inconclusive results got no clear call from the source; some entries with a clear call stand among them for comparison. The call rests on the fitted dose curve; in most records, active means well fitted inhibition curve with a large enough effect; inconclusive means small, poorly fitted or top-dose-only effect; inactive means flat fitted curve, though single readings scatter. No potency is given beside an inconclusive call; the fits are too rough.
# Target: Beta-lactamase (Escherichia coli (strain K12)) (UniProt P00811)
# Experiment: qHTS Inhibitors of AmpC Beta-Lactamase (assay with detergent); further: nearly all actives have a fitted effect of over 25% in size
# Settings: AmpC hydrolysis of nitrocefin, absorbance 480 nm, 0.01% Triton; series mostly up to 114 µM
# Outline: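 20 mM phosphate pH 7.0 + 0.01% (detergent screen) or 0.0001% Triton X-100; 5.3 nM AmpC reagent; cpd preinc 15 min RT; nitrocefin (800 uM stock) to start; A480 q20 s × 4 min; Activity was normalised to no-enzyme and no-compound control wells.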
# Potency means the concentration at half of the fitted maximal effect; tags describe the fitted curve by direction and shape.
# Chain of UniProt P00811 (P00811 whole entry, looked up): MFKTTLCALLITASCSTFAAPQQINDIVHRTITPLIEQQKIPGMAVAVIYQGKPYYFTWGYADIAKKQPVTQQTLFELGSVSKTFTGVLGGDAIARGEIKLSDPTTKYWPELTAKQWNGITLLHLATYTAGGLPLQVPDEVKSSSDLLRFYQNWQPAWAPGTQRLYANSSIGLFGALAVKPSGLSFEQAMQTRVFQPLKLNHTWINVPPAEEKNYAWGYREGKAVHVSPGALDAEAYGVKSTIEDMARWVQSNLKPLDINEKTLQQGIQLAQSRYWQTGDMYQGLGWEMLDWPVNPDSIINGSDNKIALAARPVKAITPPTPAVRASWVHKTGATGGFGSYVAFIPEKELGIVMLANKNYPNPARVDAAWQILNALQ
row,Structure (SMILES),Potency
1,O=C1C=C(c2ccccc2)CCC1,"inconclusive [inhibitor, full curve, poor fit]"
2,C#Cc1ccc([C@@H]2C=C(C(=O)OCC=C)O[C@H](OCC)[C@H]2CCCO)cc1,inactive
3,Cc1c(NC(=O)c2ccc(CC(C)C)o2)c(=O)n(-c2ccccc2)n1C,inactive
4,O=C(Cc1ccc(Cl)c(Cl)c1)N/N=C/c1cccnc1,"inconclusive [inhibitor, full curve]"
5,CC(=O)Nc1ccc(S(=O)(=O)N2CCN(C(=O)N3CCOCC3)CC2)cc1,inactive
6,O=C(CC1Oc2ccccc2NC1=O)NC1CC1 (stereo unspecified),inactive
7,Brc1ccc(-c2csc3[n+]2CCCCC3)cc1,"inconclusive [inhibitor, single point]"
8,O=C(CSc1ncccn1)N1CCc2ccccc2C1,inactive
9,Cc1ccc(-n2c(=O)c3ccc(C(=O)NCc4ccco4)cc3n(Cc3ccccc3Cl)c2=O)cc1,inactive
10,COc1ccc(Sc2cnn(-c3ccccc3)c(=O)c2Cl)cc1,inactive
11,Cc1nc(C(=O)N2CCCC(C(=O)c3cccc(OC(C)C)c3)C2)cs1 (stereo unspecified),"inconclusive [inhibitor, full curve, poor fit]"
12,O=C(NCC1CCCO1)c1cc2cc(Cl)ccc2[nH]1 (stereo unspecified),inactive
13,CCN(CC)C(=O)CSc1n[nH]c(=O)n1CCc1ccccc1,"inconclusive [inhibitor, full curve]"
14,Cc1cc(C)c2cccc(NC(=S)NC(=O)c3ccccc3)c2n1,inactive
15,COc1ccc(OC)c(N2C(=O)C(Cl)=C(N3CCOCC3)C2=O)c1,"inconclusive [inhibitor, full curve, poor fit]"
16,COc1ccc2c(c1)sc(=NC(=O)CS(=O)(=O)c1ccc(F)cc1)n2C,inactive
17,COc1ccc(C(=O)NCC(=O)OCC(=O)N2CC(C)CC(C)C2)cc1 (stereo unspecified),"inconclusive [inhibitor, full curve, poor fit]"
18,COc1ccc(CN2CCN(CC(O)Cn3c4ccccc4c4ccccc43)CC2)cc1 (stereo unspecified),"inconclusive [inhibitor, single point]"
19,O=C(O/N=C/c1ccc2c(c1)OCO2)c1ccc([N+](=O)[O-])cc1,"inconclusive [inhibitor, full curve, poor fit]"
20,COc1ccc(/C=N/NS(=O)(=O)c2ccccc2)cc1OS(=O)(=O)c1ccccc1,"inconclusive [inhibitor, full curve, poor fit]"
21,Cc1sc2ncnc(OCC(=O)N3CCN(S(=O)(=O)c4ccccc4)CC3)c2c1C,"inconclusive [inhibitor, partial curve]"
